Results from PubChem BioAssay AID588591 (National Center for Advancing Translational Sciences (NCATS), 2011).
In all, about 390,000 compounds went through this assay and about 4,700 (1.2%) were called active. This list was built around the results that the source calls inconclusive (neither active nor inactive); the mix of calls is not that of the screen. The call rests on the fitted dose curve; in most records, active means well fitted inhibition curve with a large enough effect; inconclusive means small, poorly fitted or top-dose-only effect, or another doubt; inactive means no such curve, though single readings can be large or run the other way. A potency beside an inconclusive call is a rough fit, not a confirmed value.

Molecular target: DNA polymerase eta (Homo sapiens) (UniProt Q9Y253)
Sequence of UniProt Q9Y253 (Q9Y253 whole entry, looked up): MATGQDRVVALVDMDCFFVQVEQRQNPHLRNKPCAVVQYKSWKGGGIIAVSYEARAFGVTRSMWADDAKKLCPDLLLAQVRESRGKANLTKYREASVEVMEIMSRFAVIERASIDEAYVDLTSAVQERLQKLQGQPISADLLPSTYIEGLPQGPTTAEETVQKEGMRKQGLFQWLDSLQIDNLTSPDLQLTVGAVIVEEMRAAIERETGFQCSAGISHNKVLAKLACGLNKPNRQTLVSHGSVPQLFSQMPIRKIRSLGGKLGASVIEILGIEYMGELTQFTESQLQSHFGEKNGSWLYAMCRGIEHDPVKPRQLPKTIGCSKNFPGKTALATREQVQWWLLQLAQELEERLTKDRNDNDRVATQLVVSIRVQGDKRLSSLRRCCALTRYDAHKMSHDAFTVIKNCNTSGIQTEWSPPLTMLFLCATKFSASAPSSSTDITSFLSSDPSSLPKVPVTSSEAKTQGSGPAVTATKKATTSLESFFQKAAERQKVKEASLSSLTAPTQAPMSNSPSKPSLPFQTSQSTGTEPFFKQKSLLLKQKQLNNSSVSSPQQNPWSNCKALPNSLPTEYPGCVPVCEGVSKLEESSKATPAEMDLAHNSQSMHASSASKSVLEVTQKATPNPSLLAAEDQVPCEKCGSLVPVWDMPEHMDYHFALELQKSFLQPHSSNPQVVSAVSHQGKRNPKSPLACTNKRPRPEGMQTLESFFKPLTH
Assay: qHTS for Inhibitors of Polymerase Eta
Settings: recombinant Pol eta, fluorescent DNA replication assay; series mostly up to 114 µM; activity change, negative = inhibition: at the top concentration
Method in brief: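 Pol eta at 10 nM preincubated with compounds 15 min at room temperature; reaction started with fluorescent substrate (50 nM final) and read kinetically at 0 and 10 min.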
On the % scale 0 is the no-effect control and ±100 the full control effect; potency means the concentration at half of the fitted maximal effect; tags describe the fitted curve by direction and shape.

Row | SMILES | Potency | activity change, negative = inhibition
1 | Cc1cccc(NC(=O)N(Cc2cc3cc(C)cc(C)c3[nH]c2=O)CC2COCCO2)c1 (configuration not stated) | inconclusive: 89.1 µM [inhibitor, partial curve, poor fit] | –
2 | CCCCc1nc2ccccc2n2c(-c3ccc(C)cc3)c3c(=O)n(C)c(=O)n(C)c3c12 | – | inactive: -10.1%
3 | COc1ccc(C(=O)COC(=O)c2cccc(-n3cnnn3)c2)c(OC)c1 | inconclusive: 17.8 µM [inhibitor, full curve, poor fit] | –
4 | COc1ccc(CCNC(=O)c2nnc(Cc3ccc(Cl)cc3)o2)cc1OC | inconclusive: 100 µM [inhibitor, partial curve, poor fit] | –
5 | O=Nc1c(-c2c(O)[nH]c3cc(Br)ccc23)[nH]c2ccccc12 | inconclusive: 14.1 µM [inhibitor, partial curve, poor fit] | –
6 | CCOC(=O)CC(=O)Nc1nnc(CC(C)C)s1 | inconclusive: 89.1 µM [inhibitor, single point] | –
7 | COC(=O)c1c(NC(=O)C2CC=CCC2C(=O)O)sc(C(N)=O)c1C (configuration not stated) | inconclusive: 15.8 µM [inhibitor, full curve] | –
8 | COCCn1c(Sc2ccc(C)cc2)nc2c1c(=O)[nH]c(=O)n2C | inconclusive: 3.55 µM [inhibitor, partial curve, poor fit] | –
9 | CC(C)c1ccc(NC(=O)CN2C(=O)COc3ccc(S(=O)(=O)Nc4ccccc4)cc32)cc1 | – | inactive: -17.9%
10 | O=S(=O)(c1cccc(C(F)(F)F)c1)n1c(/C=C/c2ccccc2)nc2ccccc21 | inconclusive: 79.4 µM [inhibitor, partial curve, poor fit] | –
11 | O/N=C/c1cc(Br)ccc1OCc1ccc(F)cc1 | – | inactive: -8.34%
12 | O[C@H]1CN(CC2CCCCC2)[C@@H](c2ccc(Cl)cc2)C[C@@H]1n1cc(-c2ccc(F)cc2)nn1 | – | inactive: -11.5%
13 | O=C(NCc1ccco1)C1Cc2ccccc2CN1C(=O)c1ccco1 (configuration not stated) | active: 31.6 µM | –
14 | Cc1ncc(CO)c(/C=N/NC(=S)Nc2ccc(F)cc2)c1O | inconclusive: 35.5 µM [inhibitor, partial curve, poor fit] | –
15 | O=C(NNC(=O)C1C2CCCCC21)c1coc(=O)c(Br)c1 (configuration not stated) | active: 50.1 µM | –
16 | Cc1ccccc1NS(=O)(=O)c1cc(C(=O)Nc2cccc([N+](=O)[O-])c2)ccc1C | inconclusive: 39.8 µM [inhibitor, partial curve, poor fit] | –
17 | COc1ccccc1-c1nnc(SC/C(O)=C(\C#N)c2nc3ccccc3[nH]2)n1C1CCCCC1 | inconclusive: 14.1 µM [inhibitor, full curve, poor fit] | –
18 | O=C(NC1CC1)C1=C[C@@H](c2ccc(Br)cc2)C[C@@H](OCc2ccc(CO)cc2)O1 | inconclusive: 89.1 µM [inhibitor, partial curve, poor fit] | –
19 | Cc1[nH]n(-c2ccccc2)c(=O)c1C(c1cccc([N+](=O)[O-])c1)c1c(C)[nH]n(-c2ccccc2)c1=O | – | inactive: -4.56%
20 | CCOC(=O)C1(CC2CCCCO2)CCN(Cc2ccc(OC)cc2F)CC1 (configuration not stated) | inconclusive: 89.1 µM [inhibitor, partial curve, poor fit] | –
21 | CCCCNc1c(-c2ccc(OC)c(SC3CCCCC3)c2)nc2cnccn12 | inconclusive: 25.1 µM [inhibitor, partial curve, poor fit] | –

Row | SMILES | Potency | activity change, negative = inhibition
22 | CCOC(=O)c1cnc(SC)nc1Sc1ccccc1 | inconclusive: 79.4 µM [inhibitor, partial curve, poor fit] | –
23 | COc1ccc(-n2c(=O)c3c4c(sc3n(Cc3ccccc3)c2=O)CCC4)c(OC)c1 | – | inactive: 9.79%
24 | Cc1csc(NC(=O)c2cc(-c3ccco3)nc3ccccc23)n1 | active: 25.1 µM | –
25 | COCc1nnc(NC(=O)CS(=O)(=O)Cc2ccccc2)s1 | inconclusive: 25.1 µM [inhibitor, single point] | –
26 | O=C1c2ccccc2C(=O)c2c(NCCCN(CCO)CCO)cccc21 | inconclusive: 50.1 µM [inhibitor, partial curve, poor fit] | –
27 | Cc1cccc2c(=O)n3c(cc12)-c1[nH]c2ccccc2c1CC3 | inconclusive: 20 µM [inhibitor, single point] | –
28 | COc1ccc2c(c1)c(CC(=O)NCc1cc([N+](=O)[O-])ccc1O)c(C)n2C(=O)c1ccc(Cl)cc1 | active: 44.7 µM | –
29 | N#C/C(=C\c1ccc(OCCN2CCOCC2)cc1)C(=O)Nc1ccc(S(N)(=O)=O)cc1 | inconclusive: 44.7 µM [inhibitor, partial curve] | –
30 | Cc1cc(/C=C(\C#N)C(=O)OCC(=O)NC(=O)NC(C)(C)C)c(C)n1CCC(C)C | inconclusive: 22.4 µM [inhibitor, partial curve, poor fit] | –
31 | CN(C)c1nc(N/N=C/c2ccccc2O)nc(Nc2ccc(F)cc2)n1 | active: 79.4 µM | –
32 | COc1ccccc1CNC(=O)CSc1nc2c(oc3ccccc32)c(=O)n1CC1CCCO1 (configuration not stated) | inconclusive: 12.6 µM [inhibitor, partial curve, poor fit] | –
33 | CCCn1c(CCC(=O)O)ccc1-c1ccc(OC)cc1 | inconclusive: 89.1 µM [inhibitor, single point] | –
34 | O=C(Nc1nnc(SCc2ccc(F)cc2)s1)C1CC(=O)N(Cc2ccccc2)C1 (configuration not stated) | inconclusive: 35.5 µM [inhibitor, partial curve, poor fit] | –
35 | CCN(CC)S(=O)(=O)c1ccc(O)c(NC(=O)COc2ccc(S(=O)(=O)N3CCOCC3)cc2)c1 | inconclusive: 0.631 µM [inhibitor, full curve, poor fit] | –
36 | Cc1ccccc1OCC(=O)NC(C)c1ccccc1 (configuration not stated) | inconclusive: 35.5 µM [inhibitor, single point] | –
37 | CN(C)S(=O)(=O)N1C(=O)c2ccccc2C1=O | inconclusive: 35.5 µM [inhibitor, partial curve, poor fit] | –
38 | COc1cc(/C=C/c2nc3ccccc3c(=O)[nH]2)cc(Br)c1O | inconclusive: 56.2 µM [inhibitor, partial curve, poor fit] | –
39 | N#CCn1c(C2CCCCC2)nc2ccccc2c1=O | inconclusive: 79.4 µM [inhibitor, partial curve, poor fit] | –
40 | C=CC(=O)N=c1sc2ccccc2n1-c1ccccc1 | inconclusive: 79.4 µM [inhibitor, partial curve, poor fit] | –
41 | O=C(Nc1ccc(F)cc1)N1CCCC(c2nc3c(nnn3Cc3ccccc3Cl)c(=O)[nH]2)C1 (configuration not stated) | inconclusive: 89.1 µM [inhibitor, partial curve, poor fit] | –
42 | CCc1ccc(Sc2cc(C(=O)NCCN3CCOCC3)c3ccccc3n2)cc1 | inconclusive: 50.1 µM [inhibitor, partial curve, poor fit] | –

Row | SMILES | Potency | activity change, negative = inhibition
43 | O=C(CSc1ccc([N+](=O)[O-])cn1)Nc1ccc2[nH]c(=O)[nH]c2c1 | – | inactive: 2.18%
44 | NC(=S)N/N=C/c1ccc(-c2ccc(Cl)c(Cl)c2)o1 | inconclusive: 28.2 µM [inhibitor, single point] | –
45 | Cc1cc(C)c2c(N)c(C(=O)Nc3c(C)n(C)n(-c4ccccc4)c3=O)sc2n1 | – | inactive: 1.98%
46 | COc1ccccc1C=NNC(=O)NN=Cc1ccccc1OC | inconclusive: 31.6 µM [inhibitor, partial curve, poor fit] | –
47 | CC(C)n1cnc2c(NCc3ccccc3)cc(N[C@H](C)CO)cc21 | inconclusive: 89.1 µM [inhibitor, single point] | –
48 | Cc1ccc(N(Cc2ccccc2)C(=O)c2cc(S(=O)(=O)N3CCOCC3)ccc2F)cc1 | inconclusive: 25.1 µM [inhibitor, partial curve, poor fit] | –
49 | CCC(=O)Nc1ccc(C(=O)COC(=O)c2nc3nccc(C)n3n2)cc1 | active: 3.55 µM | –
50 | CC1CCCCC12NC(=O)N(Cc1cc(=O)n3ccsc3n1)C2=O (configuration not stated) | – | inactive: -3.76%
51 | O=C(CSc1nc2scc(-c3cccs3)c2c(=O)n1CCc1ccccc1)N1CCCC1 | – | inactive: -18.9%
52 | COC(=O)CCC(=O)OC1(C)C(=O)C2=CN(CC3CC3)C(c3ccc(OC)cc3)=CC2=C(Br)C1=O (configuration not stated) | active: 79.4 µM | –
53 | COCCN(C(=O)COC(=O)c1c(NC(C)=O)sc(C)c1C)c1c(N)n(Cc2ccccc2)c(=O)[nH]c1=O | inconclusive: 100 µM [inhibitor, single point] | –
54 | Cn1nnnc1SCC1=C(C(=O)O)N2C(=O)[C@@H](NC(=O)[C@H](O)c3ccccc3)[C@H]2SC1 | active: 1.26 µM | –
55 | O=C(Nn1nnnc1Nc1ccccc1)C12CC3CC(CC(C3)C1)C2 | – | inactive: 0.0721%
56 | Cc1ccc(C)c(NC(=O)NNC(=O)c2cc3ccccc3cc2O)c1 | inconclusive: 56.2 µM [inhibitor, partial curve] | –
57 | NC(=O)c1ccc(NC(=O)CCc2nc3sc4c(c3c(=O)[nH]2)CCCC4)cc1 | inconclusive: 15.8 µM [inhibitor, full curve, poor fit] | –
58 | COc1cccc(C2C(C#N)=C(N)OC3=C2C(=O)CC(c2ccco2)C3)c1OCc1ccc(F)cc1 (configuration not stated) | inconclusive: 28.2 µM [inhibitor, partial curve] | –
59 | Cc1sc(NC(=S)NC(=O)CCc2ccccc2)c(C(N)=O)c1C | inconclusive: 10 µM [inhibitor, partial curve, poor fit] | –
60 | Cc1ccc(C(=O)OCC(=O)N(C)c2c(N)n(Cc3ccccc3)c(=O)[nH]c2=O)s1 | inconclusive: 20 µM [inhibitor, full curve, poor fit] | –
61 | CC(=O)CCc1c(C)nc2ccc(C(=O)O)cc2c1Cl | active: 20 µM | –
62 | O=C(C1=COCCO1)N1CCN(c2nc3ccc([N+](=O)[O-])cc3s2)CC1 | inconclusive: 28.2 µM [inhibitor, single point] | –
